# Test results as given in the supplement of paper PMC8183993.
# Several values for one entry are separate records, joined by “and”; a condition that tells them apart may be missing. Equal values may be shown once. Where a name gives a salt, the structure may show the parent alone. ± gives the standard deviation of the averaged measurements. Over roughly 3,200 compounds, “nuclei count (viability) relative to DMSO” has its median near 99; the lowest 2% begin near 16. The list shows a part of the results.
# System: U2OS
# Test: nuclei count (viability) relative to DMSO (% of DMSO); higher = more viable cells
# Conditions: 10 µM; 24 h
# Method: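 Primary image-based screen in U2OS cells: compounds at 10 uM for 24 h, then a 1 h o-propargyl-puromycin (OPP) pulse, click labelling, and high-throughput microscopy. Mean cytoplasmic OPP intensity and nuclei count were normalised to DMSO wells within each plate (DMSO = 100) and averaged over triplicate plates.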
row,SMILES,nuclei count
1,CC1CCN(CC[C@H]2CCCN2S(=O)(=O)c2cccc(O)c2)CC1,99.6 and 103
2,Nc1ncnc2c1ncn2[C@@H]1O[C@H](CO)[C@@H](O)[C@@H]1O [Vidarabine],100
3,CCCCc1oc2ccc(NS(C)(=O)=O)cc2c1C(=O)c1ccc(OCCCN(CCCC)CCCC)cc1 [Dronedarone HCl (Multaq)],59.4
4,CCC1(c2ccccc2)C(=O)NCNC1=O [Primidone],98.55 ± 0.35
5,CCCCCCCCCC(=O)N[C@@H](Cc1c[nH]c2ccccc12)C(=O)N[C@H](CC(N)=O)C(=O)N[C@@H](CC(=O)O)C(=O)N[C@@H]1C(=O)NCC(=O)N[C@@H](CCCN)C(=O)N[C@@H](CC(=O)O)C(=O)N[C@H](C)C(=O)N[C@@H](CC(=O)O)C(=O)NCC(=O)N[C@H](CO)C(=O)N[C@@H]([C@H](C)CC(=O)O)C(=O)N[C@@H](CC(=O)c2ccccc2N)C(=O)O[C@@H]1C [Daptomycin],110
6,CC(=O)OC[C@H]1O[C@@H]([S-])[C@H](OC(C)=O)[C@@H](OC(C)=O)[C@@H]1OC(C)=O.CCP(CC)CC.[Au+] [Auranofin],13.4
7,COc1cc(Nc2c(C#N)cnc3cc(OCCCN4CCN(C)CC4)c(OC)cc23)c(Cl)cc1Cl [Bosutinib (SKI-606)],59.3 ± 30
8,CN(C)CCC(c1ccc(Br)cc1)c1ccccn1 (stereo not drawn) [Brompheniramine maleate],102
9,COc1ccc(Cl)cc1NC(=O)Nc1cc(C)nc2ccccc12,94.7 ± 12
10,c1ccc(-c2ccc(C(c3ccccc3)n3ccnc3)cc2)cc1 (stereo not drawn) [Bifonazole],117
11,Oc1c(Cl)cc(Cl)c2cccnc12 [Chloroxine],88.9
12,O=C1CC[C@@H](C(=O)N2CSC[C@H]2C(=O)O)N1 [Pidotimod],96
13,C=CC(=O)Nc1cccc(Sc2nc(Nc3ccc(N4CCN(C)CC4)cc3)ncc2Cl)c1,13.6
14,CCCc1cc(C)[nH]c(=O)c1CNC(=O)c1cc(-c2ccnc(N3CCN(C)CC3)c2)cc2c1cnn2C(C)C,104
15,CN(CCCCCCCCCCN(C)C(=O)Oc1cccc([N+](C)(C)C)c1)C(=O)Oc1cccc([N+](C)(C)C)c1 [Demecarium bromide],87.2
16,CC(=O)N(CC(O)CO)c1c(I)c(C(=O)NCC(O)CO)c(I)c(C(=O)NCC(O)CO)c1I (stereo not drawn) [Iohexol],100
17,COC(=O)Nc1nc2cc(Sc3ccccc3)ccc2[nH]1 [Fenbendazole (Panacur)],28.6
18,COC(=O)Nc1nc2cc(Sc3ccccc3)ccc2[nH]1 [Fenbendazole],24.1
19,CC(C)(C)c1cc(C(C)(C)C)c(NC(=O)c2c[nH]c3ccccc3c2=O)cc1O [Ivacaftor (VX-770)],103
20,Cc1ccc([C@@H]2O[C@H](CO)[C@@H](O)[C@H](O)[C@H]2O)cc1Cc1ccc(-c2ccc(F)cc2)s1 [Canagliflozin],92.7
21,CC(C)NC[C@@H](C(=O)N1CCN(c2ncnc3c2[C@H](C)C[C@H]3O)CC1)c1ccc(Cl)cc1 [Ipatasertib (GDC-0068)],90.8
22,CC(C)NC[C@@H](C(=O)N1CCN(c2ncnc3c2[C@H](C)C[C@H]3O)CC1)c1ccc(Cl)cc1,92.8
23,CN1CCN(CC(=O)N2c3ccccc3C(=O)Nc3cccnc32)CC1 [Pirenzepine dihydrochloride],99
24,Cn1c(=O)c2c(ncn2CC2OCCO2)n(C)c1=O [Doxofylline],98.7
25,Oc1cc2c(cc1O)C(c1ccccc1)CNCC2 (stereo not drawn),96.6
26,COCC(=O)NC/C=C/c1ccc2ncnc(Nc3ccc(Oc4ccc(C)nc4)c(C)c3)c2c1,99.1

row,SMILES,nuclei count
1,CCCCC(=O)N(Cc1ccc(-c2ccccc2-c2nnn[nH]2)cc1)[C@H](C(=O)O)C(C)C [Valsartan (Diovan)],85.3
2,CC(=O)[C@H]1[C@H](C#N)C[C@H]2[C@@H]3CC=C4C[C@@H](O)CC[C@]4(C)[C@H]3CC[C@@]21C [Pregnenolone-16(alpha)-carbonitrile],98.4
3,OC(CCN1CCCCC1)(c1ccccc1)c1ccccc1 [Pridinol methanesulfonate salt],99.2
4,COc1cc(Nc2ncc3c(n2)-c2ccc(Cl)cc2C(c2c(F)cccc2OC)=NC3)ccc1C(=O)O [MLN8237 (Alisertib)],47.4
5,CCc1ccc(/C=C2/SC(=S)NC2=O)cc1,98.8
6,Cc1ccc(Nc2nccc(N(C)c3ccc4c(C)n(C)nc4c3)n2)cc1S(N)(=O)=O [Pazopanib HCl],97.5
7,Cc1ccc(Nc2nccc(N(C)c3ccc4c(C)n(C)nc4c3)n2)cc1S(N)(=O)=O [Pazopanib],91.6
8,CC(=Nc1ccccc1N)c1c(C)cc(=O)n(O)c1O,92.3
9,CCN(CC)CCNC(=O)c1cc(Br)c(N)cc1OC [Bromopride],86.4
10,C=CCNc1ncnc2ccc(Br)cc12,108
11,OCC(CO)N[C@H]1C[C@](O)(CO)[C@@H](O)[C@H](O)[C@H]1O [Voglibose],92.8
12,Nc1cc(C(F)(F)F)c(-c2cc(N3CCOCC3)nc(N3CCOCC3)n2)cn1,23.8
13,"Cc1c(C(=O)Nc2ccc(N3C[C@@H](C)O[C@@H](C)C3)nc2)cccc1-c1ccc(OC(F)(F)F)cc1 [LDE225 (NVP-LDE225, Erismodegib)]",101
14,Cc1ccc(Sc2cncc3sc(C(N)=O)cc23)cc1,92.7
15,CC(C)NNC(=O)c1ccncc1 [Iproniazide phosphate],104
16,N[C@H](C(=O)O)c1ccc(C(=O)O)c(O)c1 [(S)-4-Carboxy-3-hydroxyphenylglycine],102
17,Cc1cnc(NC(=O)Nc2cc(Br)c(C)cc2OC[C@@H]2CNCCO2)cn1,58.6
18,O=C(O)c1cc(=O)c2ccccc2[nH]1 [Kynurenic acid],102
19,O=c1cc(N2CCOCC2)oc2c(-c3ccccc3)cccc12,91.7 and 101
20,CN1c2ccccc2C(=O)N2CCc3c([nH]c4ccccc34)C21 (stereo in doubt) [Evodiamine (Isoevodiamine)],45.4
21,CCCCCCCCOc1ccccc1C(=O)Nc1ccc(C(=O)OCC[N+](C)(CC)CC)cc1 [Otilonium Bromide],110
22,CN1CCCN(C(=O)c2cccc(-c3ccc(/C=C4/C(=O)Nc5ccc(Cl)cc54)o3)c2)CC1,6.22
23,CN1CCN2c3ccccc3Cc3ccccc3C2C1 (stereo not drawn) [Mianserin hydrochloride],110
24,CN1CCN2c3ccccc3Cc3ccccc3C2C1 (stereo not drawn) [Mianserine hydrochloride],107
25,N[C@@H](Cc1ccc(O)c(O)c1)C(=O)O [Levodopa],96.3
26,CCS(=O)(=O)N(C)[C@H]1c2cc(C#N)ccc2OC(C)(C)[C@@H]1O (racemic) [Chromanol 293B],92

row,SMILES,nuclei count
1,O=C(O)CCC(=O)c1ccc(-c2ccccc2)cc1 [Fenbufen],105
2,O=C(Nc1ccccc1)N1CCN(c2nc(-c3ccccc3)ns2)CC1,102
3,CC(C)SC(=N)N [S-Isopropylisothiourea hydrobromide],98.3
4,CC1(COc2ccc(CC3SC(=O)NC3=O)cc2)CCCCC1 (stereo not drawn) [Ciglitazone],97.9 ± 1.8
5,Cn1nc(C(C)(C)C)cc1C(=O)N[C@@H](Cc1cccc(Cl)c1)C(=O)NCC#N [Cathepsin Inhibitor 1],107
6,CN(C)CCc1c[nH]c2ccc(CS(=O)(=O)N3CCCC3)cc12 [Almotriptan malate (Axert)],99.1
7,CN(c1ncccc1CNc1nc(Nc2ccc3c(c2)CC(=O)N3)ncc1C(F)(F)F)S(C)(=O)=O,40.2 and 40.1
8,C[N+](C)(C)CCOC(N)=O [Carbachol],101
9,CC(C)(C)NC[C@H](O)COc1cccc2c1CCCC2=O [(-) -Levobunolol hydrochloride],90.6
10,CC(C)c1cc(C(C)C)c(CC(=O)NS(=O)(=O)Oc2c(C(C)C)cccc2C(C)C)c(C(C)C)c1 [Avasimibe (CI-1011)],99.4
11,COc1ccc(-c2oc3cc(OC)ccc3c2C(=O)c2ccc(C#N)cc2)cc1,95.8
12,COC(=O)/C=C/C(=O)OC [Dimethyl Fumarate],106
13,Nc1ncn(C2OC(CO)C(O)C2O)c(=O)n1 (stereo not drawn) [Azacytidine-5],53.2
14,CCN1C(=O)C=CC1=O [N-Ethylmaleimide],98.6 ± 2.1
15,O=C(NC(Cc1cc(=O)[nH]c2ccccc12)C(=O)O)c1ccc(Cl)cc1 (stereo not drawn) [Rebamipide],101
16,O=C1c2c(O)ccc(O)c2C(=O)c2c(NCCNCCO)ccc(NCCNCCO)c21 [Mitoxantrone dihydrochloride],15.5
17,CCOC(=O)C1=C(C)NC(C)=C(C(=O)OC)C1c1cccc(Cl)c1Cl (stereo not drawn) [Felodipine],113
18,Cc1nc2sccn2c(=O)c1CCN1CCC(=C(c2ccc(F)cc2)c2ccc(F)cc2)CC1 [Ritanserin],101
19,Cc1oc(S(=O)(=O)N2CCCCC2)cc1NC(=O)Nc1ccccc1,107
20,C[C@H](CCC(=O)O)[C@H]1CC[C@H]2[C@@H]3C(=O)C[C@@H]4CC(=O)CC[C@]4(C)[C@H]3CC(=O)[C@]12C [Dehydrocholic acid],100
21,COc1cc2nc(N3CCCN(C)CC3)nc(NC3CCN(Cc4ccccc4)CC3)c2cc1OC,20.1
22,O=S(=O)(c1cccc2cnccc12)N1CCCNCC1 [Fasudil HCl (HA-1077)],99.5
23,O=S(=O)(c1cccc2cnccc12)N1CCCNCC1 [Fasudil hydrochloride],106
24,CC(C)c1cnn2c(NCc3ccccc3)cc(NCCCCCCN)nc12,89.2
25,CCc1nn(CCCN2CCN(c3cccc(Cl)c3)CC2)c(=O)n1CCOc1ccccc1 [Nefazodone hydrochloride],114
26,CCc1nn(CCCN2CCN(c3cccc(Cl)c3)CC2)c(=O)n1CCOc1ccccc1 [Nefazodone HCl],104
